Test results as given in the supplement of paper PMC10369915.
This is one part of the list. Cut-off read from the data, not from the text of the source: active = 3.2 or more and inactive = the rest. Only a few entries rise above the background.

Key:
Assay in all cases: enrichment score (SH2-bound / input frequency) (ratio); bacterial display of known human phosphotyrosine sites (pTyr-Var adds point mutants) read by sequencing; higher = stronger binding; tyrosines were phosphorylated by kinases first
Conditions in all cases: peptide library: pTyr-Var
[1] = target: SHP2 C-SH2 domain E139D
[2] = target: SHP2 C-SH2 domain wild-type
[3] = target: SHP2 N-SH2 domain L43F
[4] = target: SHP2 N-SH2 domain T42A
[5] = target: SHP2 N-SH2 domain T52S
[6] = target: SHP2 N-SH2 domain wild-type
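Note: displayed peptides selected on beads carrying the immobilized SH2 domain, with library peptides lacking any tyrosine serving as negative controls.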

Binder | enrichment score [1] | enrichment score [2] | enrichment score [3] | enrichment score [4] | enrichment score [5] | enrichment score [6]
EEQKKYFNAMK [SCN5A_Y1494_YF] | inactive: 0.729 | inactive: 0.574 | inactive: 0.586 | inactive: 0.627 | inactive: 0.585 | inactive: 0.715
RAFRRYLLKQK [SCN2A_Y1919_YF] | inactive: 0.248 | inactive: 0.283 | inactive: 0.282 | inactive: 0.352 | inactive: 0.213 | inactive: 0.325
EEQKKNFNAMK [SCN5A_Y1494_Y1494N_YF] | inactive: 0.524 | inactive: 0.634 | inactive: 0.624 | inactive: 0.695 | inactive: 0.671 | inactive: 0.707
LKALHYMVQTS [SACS_Y3367] | inactive: 1.98 | inactive: 2.07 | inactive: 2.87 | inactive: 1.84 | active: 3.21 | inactive: 2.24
MSNFAYVKREV [SCN1A_Y1694] | inactive: 1 | inactive: 0.823 | inactive: 0.93 | inactive: 0.689 | inactive: 0.975 | inactive: 0.905
RAYRRYLLKQK [SCN2A_Y1919] | inactive: 0.501 | inactive: 0.157 | inactive: 0.291 | inactive: 0.225 | inactive: 0.249 | inactive: 0.277
DPAFGYEDFTR [SESN2_Y323_T320A] | inactive: 0.74 | inactive: 0.692 | inactive: 0.636 | inactive: 0.597 | inactive: 0.587 | inactive: 0.569
QTWKTYVRQQQ [SFI1_Y164] | inactive: 0.833 | inactive: 0.714 | inactive: 0.794 | inactive: 0.848 | inactive: 0.901 | inactive: 0.867
FQCLRYIKQLG [SAMHD1_Y146_R143C] | inactive: 1.09 | inactive: 1.18 | inactive: 0.855 | inactive: 0.699 | inactive: 0.692 | inactive: 1.17
RCQDLYSARDL [SART1_Y249_R245C] | inactive: 0.843 | inactive: 0.989 | inactive: 0.807 | inactive: 0.673 | inactive: 0.771 | inactive: 0.854
DLAAQYTTVGR [SGSH_Y240] | inactive: 0.84 | inactive: 0.973 | inactive: 0.696 | inactive: 0.761 | inactive: 0.76 | inactive: 0.564
GLDGSYLLTDS [SH2D1A_Y29_R32T] | inactive: 0.685 | inactive: 0.651 | inactive: 0.771 | inactive: 0.638 | inactive: 0.707 | inactive: 0.606
EQKKYYNATKK [SCN5A_Y1495_M1498T] | inactive: 0.657 | inactive: 0.704 | inactive: 0.663 | inactive: 0.715 | inactive: 0.723 | inactive: 0.571
KHTLSYVDVGT [SDHA_Y629] | inactive: 0.917 | inactive: 0.939 | inactive: 1.63 | inactive: 2.45 | inactive: 2.11 | inactive: 1.22
EEQKKYFNATK [SCN5A_Y1494_M1498T_YF] | inactive: 1.21 | inactive: 0.82 | inactive: 0.943 | inactive: 0.813 | inactive: 0.784 | inactive: 0.82
AGDGRYEVLFL [SEMA3F_Y478_A474G] | inactive: 0.717 | inactive: 0.734 | inactive: 0.733 | inactive: 1.19 | inactive: 0.792 | inactive: 0.784
KKRRSYGNSSD [SELENOK_Y52] | inactive: 0.317 | inactive: 0.52 | inactive: 0.306 | inactive: 0.355 | inactive: 0.213 | inactive: 0.239
EEQKKYYNAVK [SCN5A_Y1494_M1498V] | inactive: 0.536 | inactive: 0.467 | inactive: 0.59 | inactive: 0.588 | inactive: 0.504 | inactive: 0.761
FQNGMYGLHQD [SGSH_Y89_H84Y_YF] | inactive: 0.904 | inactive: 0.904 | inactive: 1.6 | inactive: 0.829 | inactive: 0.967 | inactive: 0.965
